Results taken from PubChem BioAssay AID602310 (National Center for Advancing Translational Sciences (NCATS), 2012).
In all, about 410,000 compounds went through this assay and about 310 (0.076%) were called active. Inconclusive means that the source gave no clear call. Such entries were picked first, then a sample of the others. Calls come from the whole dose curve; as a rule, active = well fitted curve in the direction sought with a large enough effect; inconclusive = small, poorly fitted or top-dose-only effect; inactive = flat fitted curve, though single readings scatter. A potency beside an inconclusive call is a rough fit, not a confirmed value.

target: DNA dC->dU-editing enzyme APOBEC-3G (Homo sapiens) (UniProt Q9HC16); assay: qHTS for Inhibitors of Vif-A3G Interactions: qHTS; details: HeLa A3G-eYFP + Vif (tagged APOBEC3G with the HIV-1 protein that degrades it), YFP fluorescence, overnight; series mostly up to 46.1 µM; activity, negative = active: at the top concentration; note: nearly all actives have a fitted effect of over 60% in size;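 for activity, negative = active: hits raise eYFP signal because A3G escapes Vif-driven loss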
How it was run: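 Read-out is eYFP fluorescence (Ex 488/Em 500-530) from Vif-expressing HeLa A3G-eYFP cells; more signal means A3G escaped Vif-mediated degradation. Cells plated overnight, compound pinned in, incubated overnight at 37 deg C.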
% is set by controls: 0 for no effect and ±100 for the full control effect; potency is the fitted concentration of half-maximal effect; tags give direction and shape of the fitted curve.

Sequence of UniProt Q9HC16 (Q9HC16 whole entry, looked up): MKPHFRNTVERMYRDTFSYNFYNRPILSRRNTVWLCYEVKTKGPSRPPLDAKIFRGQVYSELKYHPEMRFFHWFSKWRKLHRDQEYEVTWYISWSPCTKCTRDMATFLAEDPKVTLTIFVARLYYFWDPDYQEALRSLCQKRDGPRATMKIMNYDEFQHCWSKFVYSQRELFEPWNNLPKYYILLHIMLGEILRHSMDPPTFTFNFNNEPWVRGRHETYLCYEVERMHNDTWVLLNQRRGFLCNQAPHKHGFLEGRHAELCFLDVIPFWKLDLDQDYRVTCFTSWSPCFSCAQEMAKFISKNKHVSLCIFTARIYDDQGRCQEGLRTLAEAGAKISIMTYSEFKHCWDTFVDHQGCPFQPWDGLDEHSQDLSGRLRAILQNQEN

| Compound | Potency | activity, negative = active |
| --- | --- | --- |
| COc1ccc(NC(=O)c2sc3nc4c(cc3c2N)CN(Cc2ccccc2)CC4)c(OC)c1 | inconclusive: 3.55 µM [inhibitor, partial curve, poor fit] |  |
| CN(c1ccccc1)S(=O)(=O)c1ccc(NC(=O)c2nc(S(C)(=O)=O)ncc2Cl)cc1 | inconclusive: 11.2 µM [inhibitor, partial curve] |  |
| C(=C\c1ccncc1)/c1ccncc1 |  | inactive: -0.866% |
| S=c1[nH]cnc2sc(Nc3ccccc3)nc12 |  | inactive: -7.63% |
| Cc1ccccc1COC(=O)c1cc([N+](=O)[O-])ccc1N1CCOCC1 | inconclusive: 15.8 µM [inhibitor, single point] |  |
| Cc1ccc(OCC(=O)N2N=C(c3ccncc3)CC2(O)C(F)(F)F)cc1C (configuration not stated) | inconclusive: 10 µM [inhibitor, partial curve, poor fit] |  |
| Cc1ccc(NC(=O)CSc2nnc3ccc4ccccc4n23)cc1 | inconclusive: 35.5 µM [inhibitor, single point] |  |
| COc1ccc(C2NN=C(c3c[nH]c4ccccc34)C2O)cc1 (configuration not stated) | inconclusive: 28.2 µM [inhibitor, single point] |  |
| O=C(O)c1cc(O)c2c(c1)[C@H]([C@H]1c3cc(C(=O)O)cc(O)c3C(=O)c3c(O[C@@H]4O[C@H](CO)[C@@H](O)[C@H](O)[C@H]4O)cccc31)c1cccc(OC3O[C@H](CO)[C@@H](O)[C@H](O)[C@H]3O)c1C2=O (some centres not stated) |  | inactive: 1.13% |
| COc1ccc(C2c3cc(OC)c(OC)cc3CC(=O)N2c2ccc(C)cc2)cc1 (configuration not stated) | inconclusive: 20 µM [inhibitor, single point] |  |
| N#C/C(=C\c1ccc(N2CCOCC2)cc1)c1ccccc1 |  | inactive: -3.2% |
| Cc1ccc(-c2nc3c(C)cc(Br)cn3c2Cc2ccsc2)cc1 | inconclusive: 11.2 µM [inhibitor, partial curve, poor fit] |  |
| O=C(c1cccc(S(=O)(=O)NCc2ccccc2)c1)N1CCN(c2cccc(C(F)(F)F)c2)CC1 | inconclusive: 12.6 µM [inhibitor, partial curve, poor fit] |  |
| O=C(C1CCN(C2CC(=O)N(c3cccc(Cl)c3)C2=O)CC1)N1CCCCCC1 (configuration not stated) |  | inactive: -0.949% |
| COc1ccc2[nH]c(C)c(CCN(Cc3cccs3)C(=S)Nc3ccccc3)c2c1 |  | inactive: -17.9% |
| CC(SC#N)C(=O)C12CC3CC(CC(C3)C1)C2 (configuration not stated) |  | inactive: -6.65% |
| C#CCOCCOCCOCCNc1nc(N2CCN(C(=O)CCCCCCCCCCNC(=O)Cn3cc(C[C@@H](C)O)nn3)CC2)nc(N2CCN(C(=O)CCCCCCCCCCNC(=O)[C@H](CCCCN)n3cc(C[C@@H](C)CC)nn3)CC2)n1 | inconclusive: 35.5 µM [inhibitor, single point] |  |
